Data published in the RNAGym collection of RNA variant scans (doi:10.7554/elife.90254).
The source gives no read counts; variants with many changes may rest on few reads.

B1: LINE1-mini (parent)
chain: GGCAGAGCUCAACACAGCGUGGCAAAGUGGCUGUGGCUAGACUGCC

Variants of: B1
Assay: self-cleavage, relative activity (ratio to wild type); higher = more cleavage; in vitro, sequencing; the parent is a self-cleaving ribozyme

Variant	self-cleavage
G2U C8G G19A G44A	0.01
C13A G17A C18U U32G	0.06
C13U G27U U38A C45U	0.03
C3U U9A U34C G40C	0.03
A6C C15A C23A G27C U28C C46A	0.05
G2U C3U A4C C8U A12G G21C G22C	0.01
U9G G21U U28A	0.05
A6U A16G G19U G22U U32A G33A	0.01
G33A C42U U43G	0.06
C3A G21A A25U G27C	0.59
C15A U34G C37U	0.09
G2C C13G U32A G33A U34C	0.03
G2A A12U G33A U34G	0.04
G2A C3U G40U	0.21
C3G A4U A14U C15G U34G A39U U43C	0.01
C3U G29A G33A C42A C45A	0.01
A6C A11C G29U G36A G44C C46A	0
A16U G17U A25U	0.08
C8U U9A C31A	0.47
G19U U20C A26C G30C C31U	0.11
U9G A11G G19C G27C	0
A4G A14G U28G G30U G36U C37A	0.33
A16G G30U C42A	0.05
A6G C37A A39U	0.15

Variant	self-cleavage
C13G G21U U34C G35U	0.08
C8G A12U C13G G19A G21C G30A C31A A41C	0.01
G7U U9G C13U G22C G27C G33U C42G C46U	0
G5U U28G G35C C42U G44A	0.04
G17A U38C A39U	0.04
A6C G19A C37A U38G A39U C45U	0.02
C15A G40C A41G	0.08
G5A A11G G22C U32G A41C G44C	0.02
G7U G22U G29U G35U C45G C46U	0.1
G7A A24G C31G G33U	0.12
G17U U28A C31U	0.14
C10A A12C C13G U34G G44U	0.01
C10U U20A G29U C46A	0.07
G1C C31G C45A	0.06
A26C U28G G33U	0.1
G1U C18G C37G	0.03
C18U U32G U38A	0.06
G1U G2A C18U A26G G35A C42A	0.04
A4G A25G G44C	0.01
C18A U34C U43A	0.07
A4U C15U C31G	0.06
A12G G17U G29U U34A	0.01
G5C C8U A24U G30A G33U	0.13
A11G C13U A26C C31U G33A G40A	0

Variant	self-cleavage
C10U C13A C15U G33C	0.04
C8G C15A G17U G21C G40U	0.02
C3A U9G G19C U38A G44U	0
G1U C8A U9A A16G G29U U32A C45A	0.02
C8U A26C C46A	1.28
U9G A24U C45U	0.04
C3A C15A A39U	0.14
G5A C10U A24G G36C U38C G40C	0.01
A16G A24G G33C	0.01
C10G G19A G35A	0.06
G1A G22C A26C	0.49
G7C C13G G33A	0.01
G5U G22U G35A C45A	0.04
G7U C8A U38A C46U	0.13
C8A A12U C13U C23G	0.82
G5U A11C G30C	0.02
C10A C37A A41U	0.02
C3U U20C C23G C31A	0.04
G19U A26C G30C A39C	0.22
A26C G40C A41C	0.09
G17U C23A C46A	0.06
G7U C8A U38G U43C	0.09
A4C C8U A26U G40A	0.14
G19A G33A U34G U43C G44C	0.02

Variant	self-cleavage
G7U A12U U20C C37G C42A	0.01
A4U G5A G22A C23A	0.06
G36C A39C U43C	0.08
G30C C37G C46A	0.04
C3U U20C C23U G30A A39G	0.02
G7U A24G A26C U28A C31A	0.02
C3G C8G C13U G44U	0.02
A25U U32G G35A G36U	0.15
U9A U20G C23U G44C	0.02
U9A G17C C37U G44A C46G	0.07
A4C A11U C31A	0.02
A4U C18U G22C A25G A41C	0.03
A6G G7U C10U G30U G33U U34G G40U	0.02
G2A U28C G35C A39U	0.11
G19U U20A G21A U28A G40U C46U	0.01
A4C G17C A25C U34A C42U	0.01
G7C C8A G44C	0.16
U9G A11C C37U U38A C46U	0.01
A4C G7A C8A	0.98
A6G C8U C18U G22A U32G C46U	0.06
G29U G30U C31U	0.16
U20C A26C G27U G30A U38C	0.42
G2U A6G C46U	0.03
C8U A16G A26U G29U A39C G44A	0.2

Variant	self-cleavage
G5C A6U G22A G27U G29C U34G	0.01
C13A G19A C23A G27U U34A G40C	0.01
G2A C3G U38G	0.03
C3A U20G G33U C45G	0.09
A4G U9A G21U	0.09
C23G U32A U38C A39U	0
A11G C15A G29U	0.03
A41U C42A C45A	0.08
C3U G27A U28C U34G	0.07
C15A A16U U20G G36C C46U	0.02
C8A A14C C23A U28G U34G C45U	0.02
C8A C23U G40A C42A	0.07
A6U A11U C15G G22C A41U U43G	0.01
G2C C10G A12C A41U C42A	0.01
C13A G17U C31A U32C G33U	0.04
C18G G21A C37U	0.09
C8U U32G C37G	0.11
A4G C10G C13A G17U G27U G29A C31G	0.03
A11G G17C A26U U38G G40C	0
G2C G5C G17C A26C G27U	0.03
G1U C37U C46A	0.08
G1U C10U G21A	0.43
C18A U32G C42A C45U	0.01
G2U A4U A6C C45A	0.01

Variant	self-cleavage
C18U C23A G29A G36A G44U	0.04
C10A C18U U28C G36U	0
U9C C10U G17A U28G	0.01
C3A C13A G36A	2.9
C8G A16U C18A A24C	0
C13A C18U C23A G29C G40A	0.02
G22A C23G G29U	0.16
G2C A12G G40A	0.08
G2U C3G C13G C45A	0.02
G29C U38A G40U G44U	0.04
A4C A12U C15U U28A G44A	0.09
C3G G22A C31U	0.05
C8A U20C G27U	0.11
A14U U20G C45A	0.02
U28A G33A U38A	0.14
G1C A6U A11U G22A U28C	0.01
A24C G27A C31G C42U	0.05
U32A C37U U38A	0.07
G29C G44C C46U	0.32
C10A G17U C23A G33C	0.01
G1A A14C G36A	0.06
G1A U9C G44C	0.1
C10A A12C A16U C31U	0.01
A4C G35U G36A	0.25

Variant	self-cleavage
C3G G33U G35U C45G	0.08
A4G U28C C45U	0.45
G22A G27C U34A	0.1
A12G G19C A25U	0.04
A4G A24G G29A	0.47
A4G A6G U28A	0.24
A6C G17C G33C	0.1
C8A A16U G40U	0.25
C3G C13G U20C G22C G36U	0.03
G1U A6G A14G G27U G29C	0.02
C3G G29U U34C	0.06
U9A C18U G21A C37U	0.02
C8U U9A G40U	0.16
A12C A16C A25U A41G	0.02
C10A C18A G27C	0.02
A6U A24C G35U	0.12
A26U G40C G44A	0.06
G7U C10A G27U U34C	0.02
A6G U20G G27A A41U	0.29
U9A C15G C37G	0.07
G2C A6G A24C A25G A26U G44U C45G	0.01
G1U G29U U43A	0.05
A4G G7A A11G A12C C18U	0
